Results taken from article PMC10668032.
Some of the results follow. At the low end of the ranking, values are background and their order means little.

Target: SIX1-Q177R homeodomain (UniProt Q15475)
Assay: universal protein binding microarray
Settings: Universal all-10-mer PBM (8x60K, AMADID 030236), 300 nM GST-tagged protein, Alexa Fluor 488 anti-GST; buffer, salt, pH and temperature not stated; high values mean tight binding; most listed sequences are background and not binding sites; double strand, one strand shown

Row | Sequence | binding signal
1 | CGAGCGCA | -0.128 E-score
2 | ATATGCCA | 0.00031 E-score
3 | AGACACTC | 0.363 E-score
4 | AGCCGACC | 0.04 E-score
5 | ATAGAGCG | -0.247 E-score
6 | AGGATCCC | 0.155 E-score
7 | ATTATTAA | -0.153 E-score
8 | CATCAAAC | -0.086 E-score
9 | AGCACGAA | 0.0605 E-score
10 | CCTCGATA | -0.0294 E-score
11 | TCTACACA | 0.194 E-score
12 | AGCGACAC | 0.465 E-score
13 | CAATCGCA | -0.039 E-score
14 | TCCGAAGA | -0.0175 E-score
15 | GCGGCGAA | -0.0975 E-score
16 | CCACCCCA | 0.267 E-score
17 | GCGATTCC | -0.121 E-score
18 | CAGACGTA | -0.133 E-score
19 | GGCAAACC | -0.0457 E-score
20 | AGTGGCTC | -0.244 E-score
21 | AAAGCTGT | -0.153 E-score
22 | GCCAGTGA | -0.217 E-score

Row | Sequence | binding signal
23 | GTCGATCA | -0.0716 E-score
24 | AGTGACAA | -0.0873 E-score
25 | GCTCGCAC | -0.00907 E-score
26 | CCTTTTCC | -0.137 E-score
27 | ACACTCTG | 0.404 E-score
28 | ACTGCCCT | -0.186 E-score
29 | CAAGGACG | -0.1 E-score
30 | CCTGCCAG | 0.00762 E-score
31 | CAAGGTAG | 0.0313 E-score
32 | CAAGTCCA | -0.211 E-score
33 | CGCCCGCG | 0.0542 E-score
34 | AGTCCGAC | -0.112 E-score
35 | ACGGCGCG | -0.0307 E-score
36 | CCATTGTA | -0.216 E-score
37 | CTAACGTC | -0.117 E-score
38 | ACTAATAT | 0.0662 E-score
39 | GCGGAAAC | -0.162 E-score
40 | GTCGAAAA | -0.0496 E-score
41 | CAATTTAC | 0.0127 E-score
42 | TACATGAA | -0.0417 E-score
43 | CCACCTGC | 0.05 E-score
44 | AGTGGCCC | -0.271 E-score

Row | Sequence | binding signal
45 | ATGGTTTC | -0.0381 E-score
46 | CGTTTTCA | -0.0704 E-score
47 | ATACTCCC | 0.162 E-score
48 | ACGATACT | 0.143 E-score
49 | TCCTAGAA | 0.0238 E-score
50 | AAGCTGAG | -0.114 E-score
51 | TAGGGTAA | 0.0306 E-score
52 | ACGTTGAT | -0.0834 E-score
53 | AACGATGA | -0.0738 E-score
54 | AACACAGG | 0.0717 E-score
55 | TAAAGCTA | -0.221 E-score
56 | CCCTAGGC | -0.0494 E-score
57 | ATACGTAG | -0.0801 E-score
58 | GGCTAGAC | -0.00462 E-score
59 | ATACTAGA | -0.0264 E-score
60 | CTGAGTGC | -0.0169 E-score
61 | GGCATAAA | 0.0203 E-score
62 | TACGCCTA | 0.0943 E-score
63 | ACTGGTGC | 0.297 E-score
64 | CCCGTGAC | 0.155 E-score
65 | AACACGCT | 0.379 E-score
66 | AAGAGAGC | -0.188 E-score

Row | Sequence | binding signal
67 | ATCACTCC | 0.0332 E-score
68 | TAGGAACA | 0.115 E-score
69 | CTTTTAGC | -0.151 E-score
70 | TAGAAAAA | -0.114 E-score
71 | AGCAACCT | -0.141 E-score
72 | AGTTAGTG | 0.206 E-score
73 | AGTTAGCG | -0.152 E-score
74 | CTATCGCC | -0.274 E-score
75 | CCCTCACA | 0.121 E-score
76 | AGTGCCCA | -0.00924 E-score
77 | TAATGGAA | -0.0578 E-score
78 | ATGGAATG | -0.11 E-score
79 | AGACGGAG | -0.0366 E-score
80 | AAAACCCT | 0.0621 E-score
81 | AAGCTTCG | -0.225 E-score
82 | GCCGTCAC | -0.153 E-score
83 | TAGATATA | 0.0184 E-score
84 | GGAAATAC | -0.091 E-score
85 | TACTCATA | -0.0612 E-score
86 | GAAGCGGA | 0.029 E-score
